The results in this text go back to PubChem BioAssay (NCI).

Common to all, as to test: DTP human tumour cell line panel, 48 h
Assay [1] has as its system MDA-MB-231 breast.
In assay [2] the test system is SR leukemia.
Assay [3] has as its system CCRF-CEM leukemia.
The test system of assay [4] is KM12 colon.

SMILES strings stand for the structures.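 Growth conditions: 96-well plates. Treatment: test compound, 48 hours, 5 concentrations. Analysis: linear interpolation between bracketing concentrations; unreached endpoints set to highest concentration. GI50 is the concentration that inhibits growth by half.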 The source holds more than one record for some entries. This list holds those alone. The source may hold further records. Values that stand side by side are repeats in other runs, samples, wells, individuals or studies. Marks in square brackets tell the records apart. Letters count within one entry.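 The concentration for full growth arrest is given as TGI.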

For the compound `COc1ccc(F)c(F)c1C(=O)c1cnc(NC2CCN(S(C)(=O)=O)CC2)nc1N`, the TGI is > 100 µM [sample A, 1 test] and 4.89 µM [sample B, mean of 2 tests] in assay [1]; > 100 µM [sample A, 1 test] and 788 nM [sample B, 1 test] in assay [2].
On to `C=CCN1C(=O)/C(=C/c2ccc(C)cc2)N=C1SC1OC(COC(C)=O)C(OC(C)=O)C(OC(C)=O)C1OC(C)=O` (centres undefined), for which, in assay [3], the TGI is > 90.7 µM [sample A, mean of 2 tests] and 6.88 µM [sample B, 1 test]. The GI50 in assay [4] was > 100 µM [sample A, mean of 2 tests] and 3.03 µM [sample B, 1 test].
